Variants at the floor of the assay are shown more often than the library holds them.
B1: TPR 5TU (parent)
chain: GGAUCUUCUCGAUCUAACAAAAAAGACAAAUCUGCCACAAAGCUUGAGAGCAUCUUCGGAUGCAGAGGCGGCAGCCUUCGGUGGCGCGAUAGCGCCAACGUUCUCAACUAUGACACGCAAAACGCGUGCUCCGUUGAAUGGAGUUUAUCAUG

Variants of: B1
Assay: polymerase ribozyme fitness, log enrichment relative to wild type (log ratio); higher = more active; in vitro selection for triplet polymerase activity
In short: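 Each subunit of a heterodimeric triplet polymerase ribozyme was represented by a PCR-built, transcribed mutant library that underwent triplicate single-round in vitro selection with frozen incubation at −7 °C. Extended constructs were recovered by gel excision, streptavidin-bead capture and RT-PCR, and Illumina sequencing of input and output libraries kept genotypes with ≥10 input reads and ≥1 read per output. Fitness is the logarithm of genotype enrichment relative to wild-type enrichment, from inverse-variance-weighted replicate averages, with a logarithm base of 2.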

Polymerase ribozyme fitness (log ratio), ≤ -4.2:
C8A A26U C35U A40G G88C U144A
C8A A28G C75G G84C A120G
C8A A28U G68U C85U G100C C123U
C8A A29C C32U U77G C93G A121U G136C
C8A A29U A40C G46A G67A G81A C85G A113C A137G
C8A A30C G59U G62C C85A
C8A A30U A41C A47C U55C C93U C96U
C8A A30U C87U
C8A A37G A66U C75G
C8A A39G G84U A106U C149G
C8A A40G U55A C96A G143C
C8A A40U C57U U78A A119C
C8A A41C A66U C69A U77C G83C G126U U130G G141C G152C
C8A A49C A119C A121U
C8A A49G C76A C93A C103G C105A U127C
C8A A52C C75U C95G C96U U109A
C8A A52C C87A
C8A A52G U61A C76U G124C
C8A A64C C72A C95U C116G A121C A138C
C8A A73U G83A
C8A A73U G83A C93U A138C U145C
C8A C10A A12C C79A G83C C103A
C8A C10G C18G A40U A47C G62C
C8A C10G C18U A21U C54A C87U A120G
C8A C10G G50U C51G U56G C57G G62A G86A
C8A C10U A17C C32U A41C C85G C99U
C8A C14A A30U A49C A52G A106C
C8A C14G G46A A49U G58U G86U A115U A121U A122U C123A
C8A C14G G65U G83C A89U
C8A C14U A16U U33G A47U C57A C93A A142U
C8A C14U A37G C54U C85U
C8A C14U G42C G50A C75A G88U G141A
C8A C18G C75A A142C
C8A C18U A20G U45A G59C G62A C76U C114G
C8A C27A C76A C85G C118U
C8A C27U G70A C96U
C8A C32A G62A U82G G143A
C8A C32G A47U C54G G92U
C8A C32U G59C G74C C105U U135G G143A
C8A C35A A73U C93U G140U
C8A C35A G59A A66U C87G G94A
C8A C35G C51U G59A A73G C76A C85G A138U U151C
C8A C35U A73G C114G C118A
C8A C38U C118G C129U
C8A C38U U56A C87U C116U G143U
C8A C43U G68A G143C A150C
C8A C54A G59U C93A G94A G117U G141U
C8A C54G C93G A97U U104G
C8A C54G G59U C75U G81A G84U G124C A138U G141C U151G
C8A C54U C85G C95U
C8A C72A G83A C87G A89U A115C U134A
C8A C76A U82G C93A
C8A C79U G81C C125U
C8A C85G
C8A C85U C105G U135C
C8A C87A
C8A C87G C108G U111A A115U
C8A C87G U111A C118U
C8A C93A C103G A115G A119G G140A
C8A C96G C99U A122U U151A
C8A C114G A142C
C8A G25U A26U C27U G50A C76U C85U C96G A97U
C8A G25U A39G A47G C63U U101G
C8A G25U U31A U82C C118G U145C
C8A G34C U45A G50A U55A G74A A91G U102G G140C G141A
C8A G42A G59U G67C
C8A G48C U55A
C8A G50A C76A C85G C108G G141C
C8A G50A G71C G92A
C8A G50U G74C G80A C85U U139C G141C
C8A G50U G84A A97U U101G
C8A G58C A91U C96G
C8A G68A A91U A97C A119G U139A G141U
C8A G83U C93G A142C
C8A G83U U90G C118A
C8A G88A
C8A G92A C118G G133U G136A
C8A U9A C85A C99G G136A
C8A U9C A30U C87U C95U C129A
C8A U9C C14U A29U G59C G62U C95U C116A
C8A U9G A17C A30U A40G G50A A73G

Polymerase ribozyme fitness (log ratio), -2.6:
C8A C85U

Polymerase ribozyme fitness (log ratio), -3.68:
C8A G92C
